In PMC3878200:
These are yes or no findings as the source states them, for the method shown. For some of these results: In cells and extracts the contact can be indirect. Some entries that bind do so weakly or less than the wild type. For some of these results: Sequences can lack the tags named with a protein.

T1: LexA-Znf179 (1–417) (mouse) (UniProt Q96DY5)
T1 sequence: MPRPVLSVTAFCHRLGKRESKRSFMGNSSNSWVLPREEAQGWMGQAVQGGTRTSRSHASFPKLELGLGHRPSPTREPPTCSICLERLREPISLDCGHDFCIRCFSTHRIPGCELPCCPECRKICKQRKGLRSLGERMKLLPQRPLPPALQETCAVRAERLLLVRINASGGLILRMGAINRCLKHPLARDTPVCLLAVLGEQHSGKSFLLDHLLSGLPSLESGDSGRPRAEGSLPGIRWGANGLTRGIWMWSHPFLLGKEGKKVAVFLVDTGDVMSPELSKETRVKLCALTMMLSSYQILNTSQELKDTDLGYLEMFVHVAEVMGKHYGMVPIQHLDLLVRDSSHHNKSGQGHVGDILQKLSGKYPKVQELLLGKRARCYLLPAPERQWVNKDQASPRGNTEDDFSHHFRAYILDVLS

T2: Flag-Plzf (180–673) (UniProt Q05516)
T2 sequence: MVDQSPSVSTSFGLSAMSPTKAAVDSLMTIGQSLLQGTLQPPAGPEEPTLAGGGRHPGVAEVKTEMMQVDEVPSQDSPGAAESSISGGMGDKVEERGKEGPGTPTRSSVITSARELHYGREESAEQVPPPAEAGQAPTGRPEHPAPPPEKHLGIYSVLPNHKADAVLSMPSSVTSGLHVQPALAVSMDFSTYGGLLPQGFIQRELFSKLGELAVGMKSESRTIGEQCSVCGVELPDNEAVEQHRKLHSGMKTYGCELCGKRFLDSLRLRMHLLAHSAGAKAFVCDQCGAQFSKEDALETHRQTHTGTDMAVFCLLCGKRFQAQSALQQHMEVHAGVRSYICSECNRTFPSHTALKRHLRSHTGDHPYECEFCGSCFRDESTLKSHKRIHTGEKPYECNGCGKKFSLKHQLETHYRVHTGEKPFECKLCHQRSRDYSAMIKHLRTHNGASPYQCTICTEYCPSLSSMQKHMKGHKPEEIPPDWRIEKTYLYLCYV

T3: Flag-Plzf (UniProt Q05516)
T3 sequence: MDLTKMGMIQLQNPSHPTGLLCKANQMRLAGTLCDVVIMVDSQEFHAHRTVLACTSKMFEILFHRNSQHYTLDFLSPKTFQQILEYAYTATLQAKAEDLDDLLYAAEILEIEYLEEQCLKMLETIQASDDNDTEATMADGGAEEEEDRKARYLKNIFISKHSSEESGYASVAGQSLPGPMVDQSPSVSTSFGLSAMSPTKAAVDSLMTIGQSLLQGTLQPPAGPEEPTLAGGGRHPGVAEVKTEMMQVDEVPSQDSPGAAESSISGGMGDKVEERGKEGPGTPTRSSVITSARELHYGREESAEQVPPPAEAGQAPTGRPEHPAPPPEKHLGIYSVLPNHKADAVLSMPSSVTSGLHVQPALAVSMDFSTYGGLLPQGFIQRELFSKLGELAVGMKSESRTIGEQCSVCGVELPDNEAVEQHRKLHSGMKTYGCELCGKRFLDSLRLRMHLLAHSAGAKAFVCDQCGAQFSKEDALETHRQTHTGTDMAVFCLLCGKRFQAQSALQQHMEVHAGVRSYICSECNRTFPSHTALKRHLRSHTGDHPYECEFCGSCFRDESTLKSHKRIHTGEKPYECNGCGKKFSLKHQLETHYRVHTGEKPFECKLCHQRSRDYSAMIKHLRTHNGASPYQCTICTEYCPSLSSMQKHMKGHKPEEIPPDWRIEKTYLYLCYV

T4: Flag-Plzf (398–673) (UniProt Q05516)
T4 sequence: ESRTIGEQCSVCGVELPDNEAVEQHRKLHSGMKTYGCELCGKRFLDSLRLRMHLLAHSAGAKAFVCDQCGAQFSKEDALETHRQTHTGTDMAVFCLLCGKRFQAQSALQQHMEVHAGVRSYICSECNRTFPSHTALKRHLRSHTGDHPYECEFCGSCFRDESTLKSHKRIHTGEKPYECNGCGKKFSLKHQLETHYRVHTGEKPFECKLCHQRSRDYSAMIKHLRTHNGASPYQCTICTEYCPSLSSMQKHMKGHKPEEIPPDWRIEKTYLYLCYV

T5: Flag-Plzf (455–673) (UniProt Q05516)
T5 sequence: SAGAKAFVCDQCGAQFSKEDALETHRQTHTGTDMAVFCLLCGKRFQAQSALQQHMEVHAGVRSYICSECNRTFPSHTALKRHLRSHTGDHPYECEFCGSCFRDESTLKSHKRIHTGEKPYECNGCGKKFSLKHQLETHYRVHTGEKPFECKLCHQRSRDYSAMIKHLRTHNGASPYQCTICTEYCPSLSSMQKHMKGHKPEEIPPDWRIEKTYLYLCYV

T6: Flag-Plzf (1–398) (UniProt Q05516)
T6 sequence: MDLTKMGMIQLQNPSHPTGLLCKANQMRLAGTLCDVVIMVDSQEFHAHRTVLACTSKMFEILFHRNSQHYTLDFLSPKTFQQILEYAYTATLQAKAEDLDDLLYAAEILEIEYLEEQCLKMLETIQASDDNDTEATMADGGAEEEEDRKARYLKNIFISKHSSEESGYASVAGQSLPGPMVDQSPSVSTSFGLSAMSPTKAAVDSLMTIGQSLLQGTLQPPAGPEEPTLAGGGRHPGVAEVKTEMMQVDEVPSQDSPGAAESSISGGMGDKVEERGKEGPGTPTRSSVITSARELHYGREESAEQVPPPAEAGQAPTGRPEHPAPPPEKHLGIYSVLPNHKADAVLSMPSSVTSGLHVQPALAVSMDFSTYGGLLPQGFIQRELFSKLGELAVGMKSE


Experiments:
[1] = biological target: T1, LexA-Znf179 (1–417) (mouse); assay: two-hybrid; retest in yeast L40 of bait and prey plasmids; quantitative liquid β-galactosidase assay (o-nitrophenylgalactoside) and X-gal; LexA-lamin and Gal-AD alone as controls
[2] = biological target: T1, LexA-Znf179 (1–417) (mouse); assay: two-hybrid; LexA-based screen in yeast L40: LexA-Znf179 (1–417) bait against a mouse brain cDNA library (Gal4 AD); selection without His, Leu, Trp, then β-galactosidase colony lift filter assay
Flag-Plzf (180–673) = biological target: T2, Flag-Plzf (180–673); assay: co-IP; COS-1 cells co-transfected with Flag-Plzf and EGFP-Znf179 constructs; lysate precipitated with anti-Flag antibody (mouse IgG as control), protein A-Sepharose; Western blot with anti-Znf179 or anti-EGFP and anti-Flag; lysis buffer 50 mM Tris-HCl pH 7.8, 150 mM NaCl, 15 mM EDTA, 0.5% Triton X-100, 0.5% NP-40, 0.1% deoxycholate
Flag-Plzf = biological target: T3, Flag-Plzf; assay: as above
Flag-Plzf (398–673) = biological target: T4, Flag-Plzf (398–673); assay: as above
Flag-Plzf (455–673) = biological target: T5, Flag-Plzf (455–673); assay: as above
Flag-Plzf (1–398) = biological target: T6, Flag-Plzf (1–398); assay: as above

| Binder | binding [2] | binding (Flag-Plzf) | further results |
| --- | --- | --- | --- |
| Gal4-Plzf (180–673) (domain or fragment, UniProt Q3UQ17 180-673) MVDQSPSVSTSFGLSAMSPTKAAVDSLMSIGQSLLQGTLQPPAGPEEPTLAGGGRHPGVAEVKMEMMQVDEAPGQDSPGAAESSISGGMGDKLEERSKEGPGTPTRGSVITSARELHYGREESGEQLSPPVEAGQGPPGRQEPLAPPVEKHLGIYSVLPNHKADAVLSMPSSVTSGLHVQPALAVSMDFSTYGGLLPQGFIQRELFSKLGELAVGMKAESRPLGEQCSVCGVELPDNEAVEQHRKLHSGMKTYGCELCGKRFLDSLRLRMHLLAHSAGAKAFVCDQCGAQFSKEDALETHRQTHTGTDMAVFCLLCGKRFQAQSALQQHMEVHAGVRSYICSECNRTFPSHTALKRHLRSHTGDHPYECEFCGSCFRDESTLKSHKRIHTGEKPYECNGCGKKFSLKHQLETHYRVHTGEKPFECKLCHQRSRDYSAMIKHLRTHNGASPYQCTICTEYCPSLSSMQKHMKGHKPEEIPPDWRIEKTYLYLCYV | binds | – | binding [1]: binds |
| Gal-AD-Plzf (398–673) (domain or fragment, UniProt Q3UQ17 398-673) ESRPLGEQCSVCGVELPDNEAVEQHRKLHSGMKTYGCELCGKRFLDSLRLRMHLLAHSAGAKAFVCDQCGAQFSKEDALETHRQTHTGTDMAVFCLLCGKRFQAQSALQQHMEVHAGVRSYICSECNRTFPSHTALKRHLRSHTGDHPYECEFCGSCFRDESTLKSHKRIHTGEKPYECNGCGKKFSLKHQLETHYRVHTGEKPFECKLCHQRSRDYSAMIKHLRTHNGASPYQCTICTEYCPSLSSMQKHMKGHKPEEIPPDWRIEKTYLYLCYV | binds | – | – |
| EGFP-Znf179 (protein, UniProt Q96DY5 1-654) MPRPVLSVTAFCHRLGKRESKRSFMGNSSNSWVLPREEAQGWMGQAVQGGTRTSRSHASFPKLELGLGHRPSPTREPPTCSICLERLREPISLDCGHDFCIRCFSTHRIPGCELPCCPECRKICKQRKGLRSLGERMKLLPQRPLPPALQETCAVRAERLLLVRINASGGLILRMGAINRCLKHPLARDTPVCLLAVLGEQHSGKSFLLDHLLSGLPSLESGDSGRPRAEGSLPGIRWGANGLTRGIWMWSHPFLLGKEGKKVAVFLVDTGDVMSPELSKETRVKLCALTMMLSSYQILNTSQELKDTDLGYLEMFVHVAEVMGKHYGMVPIQHLDLLVRDSSHHNKSGQGHVGDILQKLSGKYPKVQELLLGKRARCYLLPAPERQWVNKDQASPRGNTEDDFSHHFRAYILDVLSTAPQHAKSRCQGYWSEGRAVARGDRRLLTGQQLAQEIKNLSGWMGKTGPSFNSPDEMAAQLHDLRKVEAAKKEFEEYVRQQDIATKRIFSALRVLPDTMRNLLSTQKDAILARHGVALLCKEREQTLEALEAELQAEAKAFMDSYTMRFCGHLAAVGGAVGAGLMGLAGGVVGAGMAAAALAAEAGMVAAGAAVGATGAAVVGGGVGAGLAATVGCMEKEEDERVQGGDREPLLQEE | – | binds | binding (Flag-Plzf (180–673)): binds; binding (Flag-Plzf (398–673)): binds; binding (Flag-Plzf (455–673)): no binding; binding (Flag-Plzf (1–398)): no binding |
| EGFP-Znf179 (154–654) (domain or fragment, UniProt Q96DY5 154-654) AVRAERLLLVRINASGGLILRMGAINRCLKHPLARDTPVCLLAVLGEQHSGKSFLLDHLLSGLPSLESGDSGRPRAEGSLPGIRWGANGLTRGIWMWSHPFLLGKEGKKVAVFLVDTGDVMSPELSKETRVKLCALTMMLSSYQILNTSQELKDTDLGYLEMFVHVAEVMGKHYGMVPIQHLDLLVRDSSHHNKSGQGHVGDILQKLSGKYPKVQELLLGKRARCYLLPAPERQWVNKDQASPRGNTEDDFSHHFRAYILDVLSTAPQHAKSRCQGYWSEGRAVARGDRRLLTGQQLAQEIKNLSGWMGKTGPSFNSPDEMAAQLHDLRKVEAAKKEFEEYVRQQDIATKRIFSALRVLPDTMRNLLSTQKDAILARHGVALLCKEREQTLEALEAELQAEAKAFMDSYTMRFCGHLAAVGGAVGAGLMGLAGGVVGAGMAAAALAAEAGMVAAGAAVGATGAAVVGGGVGAGLAATVGCMEKEEDERVQGGDREPLLQEE | – | binds | – |
| EGFP-Znf179 (1–153) (domain or fragment, UniProt Q96DY5 1-153) MPRPVLSVTAFCHRLGKRESKRSFMGNSSNSWVLPREEAQGWMGQAVQGGTRTSRSHASFPKLELGLGHRPSPTREPPTCSICLERLREPISLDCGHDFCIRCFSTHRIPGCELPCCPECRKICKQRKGLRSLGERMKLLPQRPLPPALQETC | – | no binding | – |
